# Test results taken from paper PMC4336329 (PLoS ONE, 2015).
# Hit rate of the full screen: of about 310,000 compounds, about 14,000 (4.5%) showed an effect of 50% or more. Effects have a minus sign here. This is one part of the list.
# Molecular target: human ether-à-go-go-related gene (hERG) potassium channel (human, UniProt Q12809)
# Assay: primary screen, population patch clamp on CHO cells stably expressing hERG
# 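Also: peak tail current of the secondary pulse compared with the same well before compound.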
# human ether-à-go-go-related gene (hERG) potassium channel, sequence (Q12809 whole entry, looked up): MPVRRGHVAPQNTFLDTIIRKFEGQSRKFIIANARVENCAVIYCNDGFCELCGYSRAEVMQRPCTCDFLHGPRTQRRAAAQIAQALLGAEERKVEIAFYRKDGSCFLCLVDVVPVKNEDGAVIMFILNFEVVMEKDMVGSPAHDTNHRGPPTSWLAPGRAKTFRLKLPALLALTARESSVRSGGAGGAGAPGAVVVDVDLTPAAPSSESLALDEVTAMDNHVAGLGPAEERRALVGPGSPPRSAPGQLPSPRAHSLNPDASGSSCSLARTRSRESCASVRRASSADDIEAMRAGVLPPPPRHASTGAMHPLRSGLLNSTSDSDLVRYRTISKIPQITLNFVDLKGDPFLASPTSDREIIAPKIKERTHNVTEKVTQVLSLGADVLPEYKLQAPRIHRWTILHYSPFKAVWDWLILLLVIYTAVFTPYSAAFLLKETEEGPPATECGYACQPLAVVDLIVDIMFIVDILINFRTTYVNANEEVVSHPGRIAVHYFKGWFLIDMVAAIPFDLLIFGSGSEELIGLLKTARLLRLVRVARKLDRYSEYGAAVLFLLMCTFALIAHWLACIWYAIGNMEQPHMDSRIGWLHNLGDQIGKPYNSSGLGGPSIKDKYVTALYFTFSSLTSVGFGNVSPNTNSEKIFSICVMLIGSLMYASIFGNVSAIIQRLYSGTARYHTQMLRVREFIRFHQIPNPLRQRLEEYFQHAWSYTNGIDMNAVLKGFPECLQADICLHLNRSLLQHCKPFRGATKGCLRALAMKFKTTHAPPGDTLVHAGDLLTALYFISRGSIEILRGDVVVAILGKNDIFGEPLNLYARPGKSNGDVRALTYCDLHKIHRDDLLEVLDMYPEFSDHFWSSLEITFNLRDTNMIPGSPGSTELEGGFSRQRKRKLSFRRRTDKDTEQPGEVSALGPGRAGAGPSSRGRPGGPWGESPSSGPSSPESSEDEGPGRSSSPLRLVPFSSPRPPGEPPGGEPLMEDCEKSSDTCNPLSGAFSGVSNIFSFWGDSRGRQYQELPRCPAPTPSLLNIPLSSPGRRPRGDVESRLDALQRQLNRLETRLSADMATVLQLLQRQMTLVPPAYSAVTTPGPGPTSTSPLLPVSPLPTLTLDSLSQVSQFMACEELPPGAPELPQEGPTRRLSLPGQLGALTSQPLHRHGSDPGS
row,SMILES,"hERG current change (%, negative = inhibition) at 10uM [%]"
1,O=C(CSC1=NS(=O)(=O)c2cc(Cl)ccc2N1)c1ccc(Cl)cc1,9.08
2,COC(=O)c1ccc(C23CC4(C2)[C@H](CN(Cc2ccc(C(F)(F)F)cc2)[C@@H]4c2ccccc2)C3c2ccc(Cl)nc2)cc1 (some centres unmarked),14.8
3,O=C(COc1cccnc1[N+](=O)[O-])NCCc1ccc(Cl)cc1,-0.0291
4,COc1ccc(C(=O)OC(C)C(=O)NC2CCCC2)cc1S(=O)(=O)N1CCOCC1 (centres unmarked),-3.86
5,CC12CCC(C(=O)OC3CCCCC3)(OC1=O)C2(C)C (centres unmarked),18.8
6,Cc1ccc(C)c(S(=O)(=O)N2CCN(C(=O)c3ccc(-n4cncn4)c([N+](=O)[O-])c3)CC2)c1,-72.1
7,CCOC(=O)c1cc(OCC(=O)NC(C)C(C)C)cc(C(=O)OCC)c1 (centres unmarked),-7.79
8,Cc1ccc(S(N)(=O)=O)cc1NC(=O)C1CC2CCC1C2 (centres unmarked),10.1
9,Cc1cc(=O)[nH]c(N/N=C/c2ccc(-c3ccc(F)cc3)o2)n1,-12.1
10,CC1Cc2nc(SCC(=O)c3ccccc3)n(Cc3ccccc3)c(=O)c2S1 (centres unmarked),2.21
11,CC(=O)Nc1ccc(NS(=O)(=O)c2ccc(-c3csc(C)n3)s2)cc1,4.28
12,O=C1NC(N2CCOCC2)=N/C1=C/c1ccc2c(c1)OCO2,2.71
13,Cc1c(Cc2ccccc2)sc(/N=C/c2c(O)ccc3ccccc23)c1C(N)=O,-6.04
14,CC(C)CC(=O)N1CCN(C(=O)c2ccc(F)cc2)CC1,12.6
15,CCOc1ccccc1NC(=S)N1CCC(c2nc3ccccc3o2)CC1,4.78
16,NS(=O)(=O)c1ccc(CCNC(=O)c2cccc3ccccc23)cc1,9.98
17,NC(=O)c1nc[nH]c1C(=O)Nc1cccc(C(F)(F)F)c1,2.89
18,Cc1ccc(-c2noc(CN(C(=O)CCCN3C(=O)c4ccccc4C3=O)C(C)C)n2)cc1,-39.7
19,CC(=O)N1c2ccc(S(=O)(=O)NCC3CCC(C(=O)NCc4ccc(C)o4)CC3)cc2CC1C (centres unmarked),-3.13
20,Cn1c(O)c(C=NCc2cccs2)c(=O)n(C)c1=O,1.04
21,CCC(Oc1ccccc1C)C(=O)N1CCCN(C)CC1 (centres unmarked),10.4
22,Cc1ccc(-c2nn(-c3cccc(F)c3)cc2CN2CCN(c3ccccn3)CC2)o1,-26.5
23,Cc1ncsc1C(=O)Nc1nc2c(s1)CC(C)CC2 (centres unmarked),6.52
